# According to the supplement of paper PMC3334620:
# The full ranking holds about 33,000 sequences; the median of “E-score (-0.5 to 0.5)” is about -0.054, and the highest 2% start at about 0.39. Some of the results follow.
# Molecular target: Ylr278c (UniProt Q05854)
# Assay: PBM E-score (8-mer binding enrichment) (E-score (-0.5 to 0.5)); higher = stronger / more preferred TF binding; most listed sequences are background and not binding sites
# Conditions: protein concentration: 200 nM; construct: GST-DNA-binding domain
# Procedure, shortened: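 Using PURExpress in vitro transcription/translation, GST-tagged yeast transcription factors were made in full-length or DNA-binding-domain form. These were applied at about 100-200 nM to double-stranded universal all-10-mer Agilent arrays, and bound protein was detected with fluorescent anti-GST. Scans were normalised with masliner before the Universal PBM Analysis Suite assigned E-scores to ungapped eight-base words pooled with their reverse complements.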
row,Sequence,PBM E-score
1,AGCGTAAT,-0.0833
2,CGGCTGCC,0.221
3,AGGATGTG,-0.061
4,ACGGGCCG,0.127
5,TCCAGTCA,-0.128
6,GATTTAGC,0.121
7,GCATGACA,-0.309
8,ATAGACAT,-0.311
9,CTTCGGCC,0.154
10,GGAGACCC,0.112
11,GATTGCCA,-0.0242
12,AACCAAAT,-0.0169
13,CTGCGTTA,-0.211
14,ATTATGAG,-0.154
15,ATCCACAG,-0.118
16,AGTCTTCA,-0.252
17,AGTAGGGG,0.0709
18,AACGAGGC,-0.0577
19,AAAGTTGT,0.106
20,GGCTGTGA,-0.285
21,GAGCAACC,-0.0653
22,ATTAGACG,-0.0379
23,ATTGAATA,-0.0355
24,CGAACGGC,0.134
25,GGCAGTGA,-0.229

row,Sequence,PBM E-score
1,AAAAGTTA,-0.175
2,ACTTTCGA,-0.00487
3,GCGTACGC,0.164
4,AATCGGCA,0.304
5,CAAAAGAG,-0.23
6,CTCACTGA,-0.174
7,GGGCAGAC,-0.105
8,CACCGGCC,0.273
9,CGATGGAC,0.0674
10,AATTCAAC,0.0812
11,CTCCGGAA,0.479
12,GACTACGC,-0.0263
13,ACTATCCG,0.258
14,ATATTTGG,-0.189
15,CCTACAGG,-0.0841
16,TCTTTCCA,0.0294
17,CCAGCCCG,0.115
18,ATAACAAG,0.103
19,AAAGGTAA,-0.122
20,TATGATCA,-0.202
21,AGAGGTAA,-0.0365
22,GATCCGAA,0.33
23,ATGGAACA,-0.272
24,AGGGAAAC,-0.192
25,CCCTTAGC,-0.00214

row,Sequence,PBM E-score
1,CGTTAAAC,0.0126
2,CACTAAAA,0.0193
3,GGAAAAGA,0.112
4,ATTACGGA,0.336
5,AGGATCTA,-0.344
6,GGCCGCAC,0.23
7,GATGTAAA,0.00024
8,TCGTAACA,-0.0384
9,AATCCCGT,0.346
10,GCCGCGCA,0.21
11,ACTCAGGA,-0.0886
12,AAGATCGG,0.368
13,GCGGTAAC,0.17
14,AAAACGTG,-0.298
15,GGCCGAAA,0.254
16,CTCCTTGC,-0.188
17,AACGAAGA,-0.101
18,CCTATGGC,-0.118
19,AAACGGTC,0.107
20,AGAATGGG,0.00803
21,AACCGTTG,-0.062
22,CGTGGACA,0.0908
23,ACGGTCGA,0.0442
24,CGCATGCG,0.00582
25,ACAGGGCC,0.0175

row,Sequence,PBM E-score
1,CTAGGAAC,-0.171
2,CTACAGCC,-0.0762
3,AAAACTGC,-0.128
4,AAAGCCGT,0.137
5,CTGAATGA,-0.0114
6,GCACGGGC,0.059
7,ATCTTTTA,-0.123
8,ACGCGTCT,-0.172
9,GACGTCAA,-0.156
10,GCAAGTGC,-0.274
11,AACCCTAA,-0.0663
12,ATAGAAGG,-0.0667
13,AGCCCCTG,-0.268
14,AGTGCCCG,0.157
15,CTGCGCTC,-0.0763
16,AACGTAAA,0.0365
17,ATGATGTG,0.052
18,ATAGGTCC,0.0558
19,AGATTTTC,-0.0429
20,CGTCAGAC,-0.103
21,AACGGCGC,0.0827
22,CGTCCGAA,0.352
23,GTCTTTTA,-0.0667
24,CACGGCAG,-0.013
25,CACGAGAA,-0.147

row,Sequence,PBM E-score
1,GACCTAGC,-0.0181
2,GCGGTTAA,0.0177
3,CTCGTGAA,-0.148
4,CCATCGGA,0.415
5,GCTTTTAC,0.00897
6,GTGAACGA,-0.132
7,AGAGGCCG,-0.0387
8,ATATAAAA,-0.00951
9,CCGGCACA,0.281
10,ACGGTTTA,-0.121
11,ACTTATCT,-0.101
12,ATTGATGC,-0.0883
13,GCATAACA,-0.206
14,CGATCGAG,0.185
15,CTGAATCA,-0.19
16,GCATGGAC,-0.0056
17,CAGACCGG,0.29
18,CGAGACAC,-0.184
19,GTTGTTTA,-0.164
20,AGGCCAAC,-0.0929
21,ACTCTAGA,-0.205
22,ATCTTGGA,-0.214
23,GCGGCCGC,0.284
24,ACGAAGTC,-0.151
25,ACACTCAT,-0.126

row,Sequence,PBM E-score
1,CCCTAATC,0.0251
2,CATGCCCA,-0.286
3,ACGAAAGG,-0.0104
4,ATAAACGA,0.0214
5,CAACGACG,-0.167
6,AGCGTGTG,0.0373
7,AATTTACG,0.204
8,ACCAGTCG,-0.0273
9,AAGTCGGC,0.11
10,CAGAGAAA,-0.183
11,ATCGTGTC,0.129
12,GGTACGAA,-0.142
13,AGGCGAAT,-0.143
14,GCTCACAC,-0.242
15,GAGATGCA,-0.185
16,ATGCTGGG,0.0018
17,CAATCCCA,0.0152
18,ATACATGG,-0.0741
19,CGCTTGAA,0.111
20,ACGTGAGG,-0.0487
21,ATTAATGA,0.066
22,ATCAGAGG,-0.29
23,AAACAATC,-0.0526
24,AGGGGCGC,0.0408
25,AAGGAGCC,-0.00021

row,Sequence,PBM E-score
1,AAACTTTC,-0.0361
2,ACAGGCGT,-0.205
3,ATCTTTAA,-0.0603
4,ACTTATAT,-0.0207
5,AGGAGGAG,-0.212
6,CTTTGATA,-0.119
7,CGGTGTTC,0.324
8,CCATGCTC,-0.208
9,CTCTGTGC,-0.103
10,CAAAAGAA,0.0117
11,CAAGATTA,-0.145
12,CTTGTCTC,0.0729
13,AAAGCCCC,0.112
14,CAAAGCAG,-0.19
15,CACCTAAC,-0.0149
16,CTGGTTTA,-0.235
17,TCTCGACA,-0.00534
18,AGTACACA,-0.00548
19,GCTTTCGA,-0.111
20,CAACTGTA,-0.221
21,CCACTTCG,0.103
22,ATTGTTTC,0.153
